# Source: the supplement of paper PMC3334620
# Whole data set: some 33,000 sequences, median “E-score (-0.5 to 0.5)” near -0.054, cut for the highest 2% near 0.39. Some of the results follow.
# Biological target: Ylr278c (UniProt Q05854)
# Assay: PBM E-score (8-mer binding enrichment) (E-score (-0.5 to 0.5)); higher = stronger / more preferred TF binding; most listed sequences are background and not binding sites
# Conditions: protein concentration: 200 nM; construct: GST-DNA-binding domain
# Description: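 Universal 'all 10-mer' protein binding microarrays (Agilent AMADID 015681) probed with GST-tagged S. cerevisiae TFs (full-length or DBD) made by in vitro transcription/translation (PURExpress), about 100-200 nM. Bound TF was detected with fluorescent anti-GST. Each ungapped 8-mer (which stands for itself and its reverse complement) is scored by the PBM enrichment score (E-score), a modified Wilcoxon-Mann-Whitney statistic from -0.5 to +0.5, computed with the Universal PBM Analysis Suite. Scale: above 0.35 generally sequence-specific binding.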
row,Sequence,PBM E-score
1,ACTGGGTA,-0.173
2,AAATTTCA,-0.365
3,AGGGCAGG,-0.294
4,CGGGAGGA,0.25
5,GATGGCGA,0.057
6,AGAATACA,-0.00157
7,AACGAGCG,-0.00334
8,AAGTCGCG,0.0326
9,ATTCTGCG,0.173
10,AATCTGGC,-0.0102
11,GATGCTCA,0.0423
12,GGACAGTA,0.144
13,CACCTGAA,-0.0681
14,CTGCTTTA,0.0716
15,TCGGTTCA,-0.211
16,CACCTATC,0.086
17,CTACCGGA,0.348
18,TAAAATAA,0.0137
19,CGGACTTC,0.473
20,GCTCGACC,-0.131
21,ACAGTAAT,-0.0156
22,CTGGTGCC,-0.216
23,ATACCATA,-0.115
24,CGTTGAGC,0.00593
25,ACGCCCGT,0.155

row,Sequence,PBM E-score
1,TGGACGAA,-0.116
2,AAATAACT,0.00399
3,CATTAAGG,-0.145
4,CGACACCG,0.296
5,AGCTATGG,-0.148
6,ACGGCGAA,0.21
7,ATCTGTAC,0.0146
8,CATGAAAC,-0.0717
9,TACGTCCA,-0.105
10,CCCTGGTA,-0.264
11,GTCGACGA,0.028
12,CAACCTAA,-0.243
13,GAAAGGCA,0.0414
14,GGAGTGGA,0.157
15,CTAGCGTC,-0.238
16,ACTGTATA,-0.108
17,AGTGATCG,-0.144
18,ATGAACGG,0.00535
19,CAAAGAAC,-0.0262
20,ACCTCAAC,-0.142
21,CCATCAGA,-0.214
22,GTATAGAA,-0.095
23,AGGATCAC,-0.162
24,CCCTCAAG,-0.169
25,CTGACGTA,-0.0906

row,Sequence,PBM E-score
1,CTCGGTGA,0.146
2,GAGAGATA,-0.0188
3,CCTACAAG,-0.0328
4,ATGATAGA,-0.0135
5,CGACTCTA,-0.137
6,CCCTGACC,-0.169
7,CACCACAG,-0.0569
8,ACCAAACA,-0.114
9,ACAGCCCC,0.0291
10,GCGCAGAC,-0.00291
11,CTCCCGAC,0.158
12,AAGGCTTC,-0.0609
13,ACGCGATG,0.0899
14,CCAGAAGA,-0.336
15,CCTTTCAA,-0.0451
16,CGGTTCAG,0.0401
17,CAGAAATG,-0.269
18,GGGTGAGA,-0.0949
19,ACCATTTC,-0.0163
20,CCCGTAAG,-0.121
21,AACCCATC,-0.0461
22,ATGGACAT,-0.0871
23,CCTCTTTA,-0.185
24,GTAGTGTA,-0.142
25,ATTATTGG,0.143

row,Sequence,PBM E-score
1,GCTAAAGC,0.00721
2,CCTAGATC,-0.178
3,ACTCTGCA,-0.118
4,GCGAGCCA,-0.0892
5,CAGATCGG,0.204
6,CGTACAGC,0.0807
7,ATCACCTG,-0.0659
8,GACCCAAA,-0.0868
9,TAAGTGAA,-0.072
10,CGCCACCC,-0.175
11,GGCAAGAC,-0.0213
12,GTTATTCA,-0.135
13,ATGCACTA,-0.231
14,GCCCTCCC,0.0213
15,AGCGATAT,-0.154
16,CAAAATAC,0.027
17,CCAATTGA,-0.183
18,GATCGACC,0.0768
19,ACCCGACC,0.121
20,TAGGGCAA,-0.123
21,CAGTCATA,-0.0452
22,CCGCTTGA,0.111
23,AACAGGCG,-0.0358
24,GCGTGGCA,-0.137
25,ATAATGTA,-0.133

row,Sequence,PBM E-score
1,CAGTGTTA,0.0269
2,CAGCTATG,-0.344
3,CATGGACA,-0.336
4,CATGTCCA,0.083
5,GTCGCGCA,0.188
6,CTACCCAA,-0.213
7,CTACAAAG,-0.199
8,AGTGACAG,-0.079
9,GATCAGAA,-0.275
10,CATTCAGC,-0.00713
11,AAGGGCAA,0.124
12,ATACCCCG,0.401
13,ACAGCGTA,-0.088
14,GAAGGACA,0.098
15,ACTCTACG,-0.208
16,GGCCTGAA,-0.0348
17,GGAAACCA,0.0346
18,ACTTGTCG,0.0472
19,CAATCAAC,0.0184
20,AGTTTCTC,-0.0203
21,AAATGTAA,0.00897
22,AGTTCCTA,-0.0971
23,CTCCCAGA,-0.274
24,GCCATGGC,-0.217
25,ACAGAAGC,-0.0288

row,Sequence,PBM E-score
1,AGCACCCA,-0.0915
2,ATACGAAC,-0.0868
3,GAGGGGGA,-0.223
4,ACTGATCG,-0.184
5,GCCTGGGA,-0.0565
6,AAACTACA,-0.0133
7,CATCGAAC,-0.114
8,ACGGCAGA,0.154
9,ATCATGTG,-0.0918
10,AACTTAGT,-0.0604
11,ATAATGCG,0.12
12,GGCTCCCC,0.0257
13,CGGGATAC,0.331
14,AATGAGAA,-0.14
15,CCTGTACC,-0.152
16,CCGACAAC,0.199
17,ACCCACCT,-0.117
18,AGTCGAAT,-0.141
19,AGGTGGGC,-0.141
20,AACCGTTC,0.145
21,CCTGTCAC,-0.0802
22,TATAACAA,-0.0224
23,ATTTCGTC,-0.103
24,CCCGAGGG,0.171
25,GTGAAGTA,-0.0107

row,Sequence,PBM E-score
1,ATTGCACA,-0.136
2,CGCACGAC,-0.0202
3,CGGGGAGC,0.242
4,GAGAAGTA,-0.0218
5,CGTCACAG,-0.105
6,ACGCACAC,-0.0458
7,AGTGTGAT,-0.19
8,ATAAGCGA,0.0471
9,AATAGGTC,-0.116
10,ACCGATTA,0.269
11,CCTCCGAA,0.441
12,GAACAGGC,-0.0853
13,AATAGCGA,-0.0184
14,AAACCACT,-0.129
15,GCCCGGAC,0.406
16,CTGATTGA,-0.255
17,ACTCGCTA,0.0791
18,AATACCTG,-0.107
19,GCACTTCC,0.00163
20,ATTCCCAC,-0.0578
21,AATGAGGC,-0.113
22,GCAATCAC,0.132
